Assay: soluble on expression in E. coli; label from the status in PepcDB or PDB records

Sequence	soluble on expression in E. coli
MIWQGRSRRKPSGGFYRKARKKRKYELGREQVETLIGERKVKKIRVRGGNYKLKLFADKYANVYDPKQGKVVRVEIESVVENPAHVHYARRNVITKGAIIATSIGKARVTNRPSQEGVVNAVLIELEHHHHHH	soluble
MALSMPLNGLKEEDKEPLIELFVKAGSDGESIGNCPFSQRLFMILWLKGVVFSVTTVDLKRKPADLQNLAPGTHPPFITFNSEVKTDVNKIEEFLEEVLCPPKYLKLSPKHPESNTAGMDIFAKFSAYIKNSRPEANEALERGLLKTLQKLDEYLNSPLPDEIDENSMEDIKFSTRKFLDGNEMTLADCNLLPKLHIVKVVAKKYRNFDIPKEMTGIWRYLTNAYSRDEFTNTCPSDKEVEIAYSDVAKRLPSKVPKGEFQHTGGRY	soluble

Source: the DeepSol protein solubility set
